Screen size: about 310,000 compounds; about 2,200 (0.71%) showed an effect of 50% or more. The effect is printed as a negative number. This is one part of the list.

Sequence of human ether-à-go-go-related gene (hERG) potassium channel (Q12809 whole entry, looked up): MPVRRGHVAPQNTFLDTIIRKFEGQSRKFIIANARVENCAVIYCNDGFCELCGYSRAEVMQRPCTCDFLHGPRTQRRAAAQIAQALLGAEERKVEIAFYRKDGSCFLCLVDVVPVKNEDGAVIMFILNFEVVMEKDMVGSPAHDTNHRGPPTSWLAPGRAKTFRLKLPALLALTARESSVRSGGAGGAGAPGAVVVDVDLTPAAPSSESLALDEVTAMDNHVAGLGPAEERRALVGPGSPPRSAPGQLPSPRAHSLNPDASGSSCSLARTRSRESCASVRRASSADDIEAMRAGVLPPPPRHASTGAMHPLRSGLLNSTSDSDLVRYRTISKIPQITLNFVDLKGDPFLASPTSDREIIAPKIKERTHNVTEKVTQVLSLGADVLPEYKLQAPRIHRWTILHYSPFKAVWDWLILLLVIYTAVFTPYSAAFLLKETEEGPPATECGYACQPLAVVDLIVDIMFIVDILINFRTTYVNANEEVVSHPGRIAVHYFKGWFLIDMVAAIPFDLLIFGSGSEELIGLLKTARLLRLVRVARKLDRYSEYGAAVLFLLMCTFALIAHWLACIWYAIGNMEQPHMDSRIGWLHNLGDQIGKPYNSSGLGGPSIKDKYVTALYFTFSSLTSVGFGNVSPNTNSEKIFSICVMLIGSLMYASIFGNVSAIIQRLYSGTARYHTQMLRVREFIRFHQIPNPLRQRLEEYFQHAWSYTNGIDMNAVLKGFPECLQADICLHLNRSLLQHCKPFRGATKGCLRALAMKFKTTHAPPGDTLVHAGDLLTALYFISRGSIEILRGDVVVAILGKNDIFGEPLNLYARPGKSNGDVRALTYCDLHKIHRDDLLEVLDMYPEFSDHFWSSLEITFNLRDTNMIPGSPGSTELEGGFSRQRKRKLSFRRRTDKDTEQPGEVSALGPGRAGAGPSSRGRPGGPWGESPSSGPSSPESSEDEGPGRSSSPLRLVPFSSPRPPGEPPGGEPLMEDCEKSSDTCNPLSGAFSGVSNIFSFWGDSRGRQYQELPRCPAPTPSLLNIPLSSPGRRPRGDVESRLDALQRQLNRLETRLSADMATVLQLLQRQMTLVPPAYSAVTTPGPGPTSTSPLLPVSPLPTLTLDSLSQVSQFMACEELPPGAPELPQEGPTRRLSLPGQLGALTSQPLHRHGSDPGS

This assay addresses human ether-à-go-go-related gene (hERG) potassium channel (human, UniProt Q12809). As to the kind of experiment: primary screen, population patch clamp on CHO cells stably expressing hERG.
Regarding `CC(C)CS(=O)(=O)C1=NSC2=NC(=O)/C(=C\c3ccc(OC(=O)c4ccco4)cc3)C(=N)N21`, the “hERG current change (%, negative = inhibition) at 1uM” value was 14.5%. Turning to `CCOC(=O)c1sc(NC(=O)CCN2CCN(C)CC2)c(C(=O)OCC)c1C`, the “hERG current change (%, negative = inhibition) at 1uM” value is reported as -15.3%. With `O=C(Nc1cccc(-c2ccc(N3CCCCC3)nn2)c1)c1ccco1` the figure was 9.27%; with `COc1ccc2c(c1)c(C)cc[n+]2Cc1ccccc1.[Cl-]`, 14.6%. Next, `CCc1nccn1S(=O)(=O)c1ccccc1[N+](=O)[O-]`: 2.99%.

As for `COc1ccc(C(=O)C2CCCN(Cc3ccc4nonc4c3)C2)cc1F` (stereo not shown), the “hERG current change (%, negative = inhibition) at 1uM” value was 3.27%.

`CC1(C)Cc2c(c(-c3ccco3)nc3n[nH]c(N)c23)CO1`: the “hERG current change (%, negative = inhibition) at 1uM” value came out at 2.25%. Consider `COc1ccccc1C(O)(C(=O)NNc1cccc(C)c1)c1ccccc1OC`, for which the “hERG current change (%, negative = inhibition) at 1uM” value is reported as 8.03%. As to `O=[N+]([O-])c1cccc(-c2cn3ccccc3n2)c1`, the “hERG current change (%, negative = inhibition) at 1uM” value was determined as 15.2%.

`O=C(NC1CC1)C1CCN(C2CCN(C(=O)CSc3ccccc3)CC2)CC1`: the “hERG current change (%, negative = inhibition) at 1uM” value stood at 15.4%. Next, `COC(=O)C(Cc1ccccc1)NC(=O)C12CC3CC(CC(C3)C1)C2` (stereo not shown): 2.17%. Next, `CCC1(C)CC2(CCCN(CCC(O)(c3ccccc3)c3ccccc3)C2)CCO1.Cl` (stereo not shown): 0.555%; `COc1ccc(C(NC(=O)c2ccc(=O)[nH]c2)C(=O)Nc2ccc(C(C)C)cc2)cc1` (stereo not shown): 5.41%. Next, `Cc1cc(C(=O)OCC(=O)NCCc2ccccc2)c2ccccc2n1`: 13.1%; `COc1cc(NC(=O)c2c(F)c(F)c(F)c(F)c2F)c(OC)cc1Cl`: 0.502%; `Cc1ccc(S(=O)(=O)N2CCCOC2CNC(=O)C(=O)NCc2ccncc2)cc1` (stereo not shown): 1.54%. With `CCCCCn1ccc(=O)c2c(C(F)(F)F)nccc21`, the “hERG current change (%, negative = inhibition) at 1uM” value worked out at 14%.

Regarding `Cc1ccccc1C1CCCN(Cc2nc(C3CC3)no2)C1` (stereo not shown), the “hERG current change (%, negative = inhibition) at 1uM” value is recorded as 2.7%. Next, `CCC(=O)N(C)CCc1cc2c(c(OC)c1/C=N/Nc1ccc(C(=O)O)cc1)OCO2`: 3.79%; `COC(=O)CNC(=O)C(Cc1c[nH]c2ccccc12)NC(=O)OC(C)(C)C` (stereo not shown): 10.2%. Next, `COc1ccc2c(C=Nc3c(C)n(C)n(-c4ccccc4)c3=O)c(O)n(Cc3ccco3)c(=O)c2c1`: 1.49%. With `CCc1c(C)sc(NC(=O)c2cnn3cccnc23)c1C#N` the figure was 7.78%. In the case of `CN(C)c1cc2c(c(N(C)C)c1)C(=O)c1ccccc1C2=O`, the “hERG current change (%, negative = inhibition) at 1uM” value is 13.4%. With `COc1ccc(OCCSc2nnc(-c3ccc(OC)cc3)n2N)cc1` the figure was 7.59%; with `COc1ccc(Nc2nc(N)nc(CSC(=S)N3CCC(C)CC3)n2)cc1`, 11.2%. Regarding `NC(CC(=O)O)c1cccc(OCc2ccccc2)c1` (stereo not shown), the “hERG current change (%, negative = inhibition) at 1uM” value turned out to be 8.55%. With `COc1cccc(/C=N/n2c(-c3n[nH]c4c3CCC4)n[nH]c2=S)c1OC` the figure was 3.21%; with `Cc1cc([N+](=O)[O-])nn1CCC(=O)Nc1nccs1`, 9.35%. With `COc1ccccc1NC(=O)CSc1nnnn1-c1ccc(C(=O)O)cc1` the figure was 13.8%. On to `c1cncc(CNC2=NCCCCC2)c1`, for which the “hERG current change (%, negative = inhibition) at 1uM” value worked out at 1.17%. With `CCCCCC(=O)N1CCN(CCN=CC2=C(O)CC(c3ccc(OC)cc3)CC2=O)CC1` (stereo not shown) the figure was -54.5%; with `COc1ccc(C=C(c2nc3ccccc3s2)c2nc3ccccc3s2)cc1O`, 8.63%; with `C/C(=N\NC(=O)c1cc(-c2ccccc2C)nc2ccccc12)c1cccnc1`, 12.1%.

As for `CCOC(=O)/C(C(=Nc1ccccc1)Nc1ccccc1)=C(\C)O`, the “hERG current change (%, negative = inhibition) at 1uM” value is on record as 13.4%. With `N#Cc1sc(C(N)=O)c(-c2ccccc2)c1-c1ccccc1` the figure was 10.2%. With `Cc1ccc(NC(=O)CN(Cc2ccccc2)S(C)(=O)=O)cc1C` the figure was 2.69%; with `Cc1cc(C(=O)C(C)OC(=O)c2ccc(NC(=O)CC#N)cc2)c(C)n1-c1ccc(OC(F)F)cc1` (stereo not shown), 14%; with `CC1=CC(C)(C)N(C(=O)CSc2nncn2C)c2ccccc21`, 12%. With `CN(C)/C=C(\C#N)C(=O)N/N=C(\CC(=O)C(F)(F)F)c1ccco1` the figure was 14.4%; with `O=C(NCCCCC(NC(=O)C1CCCCC1)C(=O)O)c1ccccc1` (stereo not shown), 9.07%; with `CCCNC(=O)c1nn2cc(Br)cnc2c1Br`, -15.8%.

For `CC(=O)Nc1sc(C)c(C)c1C(=O)OCC(=O)NCc1ccc(Cl)cc1`, the “hERG current change (%, negative = inhibition) at 1uM” value stood at 9.14%. With `CC1CCN(c2nc(-c3cccnc3)nc3scc(-c4ccccc4)c23)CC1` the figure was 9.34%.

The record behind these values is article PMC4336329 (PLoS ONE, 2015).
